In article PMC3841200 one finds binding data, which are given here for five molecules.

Results are given in words; binding and its absence hold for the method and conditions named. For some assays here: Binding seen in cells or lysates may run through a third protein. Some binding calls cover weakened binding; strength is not graded here. Where a sequence is shown, tags or fusion partners need not be part of it.

Assay [1] concerns the target T1, GAL4 DNA-binding domain fused with RCF3 (BD:RCF3) (Arabidopsis thaliana) (UniProt Q8W4B1).
T1 sequence: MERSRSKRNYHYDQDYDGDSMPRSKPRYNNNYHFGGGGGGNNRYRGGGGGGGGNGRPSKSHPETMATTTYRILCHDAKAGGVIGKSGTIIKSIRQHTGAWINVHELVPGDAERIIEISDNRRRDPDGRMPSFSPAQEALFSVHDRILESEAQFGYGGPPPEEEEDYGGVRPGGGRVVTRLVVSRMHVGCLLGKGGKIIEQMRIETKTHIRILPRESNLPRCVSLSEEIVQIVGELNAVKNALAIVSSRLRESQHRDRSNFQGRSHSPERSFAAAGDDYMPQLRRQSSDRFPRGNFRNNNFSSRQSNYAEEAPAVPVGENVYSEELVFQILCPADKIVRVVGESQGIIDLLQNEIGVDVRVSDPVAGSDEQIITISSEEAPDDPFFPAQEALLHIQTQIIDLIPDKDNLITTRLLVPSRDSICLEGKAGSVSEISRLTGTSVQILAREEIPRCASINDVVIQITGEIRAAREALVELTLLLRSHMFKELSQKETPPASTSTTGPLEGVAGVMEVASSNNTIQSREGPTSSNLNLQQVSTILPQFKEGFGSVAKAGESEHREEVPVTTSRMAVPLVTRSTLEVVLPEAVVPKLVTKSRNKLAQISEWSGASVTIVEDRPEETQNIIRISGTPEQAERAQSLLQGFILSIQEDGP
The assay is described as follows: two-hybrid; yeast PJ69-4A; GAL4-BD (pBUTE^GW) and GAL4-AD (pGAD^GW) fusions, both orientations; growth on SD -ULHA with X-alpha-gal, 28°C, 48 h.

Assay [2] concerns the target T2, CPL1^640–967-cYFP (Arabidopsis thaliana) (UniProt Q5YDB6).
T2 sequence: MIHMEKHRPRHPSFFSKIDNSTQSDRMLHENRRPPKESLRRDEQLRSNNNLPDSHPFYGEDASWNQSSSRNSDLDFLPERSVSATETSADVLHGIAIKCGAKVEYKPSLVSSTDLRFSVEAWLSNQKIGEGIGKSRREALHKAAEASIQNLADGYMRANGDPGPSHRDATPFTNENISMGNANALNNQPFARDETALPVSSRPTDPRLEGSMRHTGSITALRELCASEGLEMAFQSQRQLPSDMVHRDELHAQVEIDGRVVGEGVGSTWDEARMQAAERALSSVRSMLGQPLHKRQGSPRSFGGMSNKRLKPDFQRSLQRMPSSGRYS
The assay is described as follows: split reporter; BiFC; nYFP and cYFP fusions co-expressed in Arabidopsis mesophyll protoplasts; YFP fluorescence one day after transformation.

B1: GAL4 activation domain fused with CPL1^699–967 (domain or fragment, UniProt Q5YDB6 699-967)
chain: EDASWNQSSSRNSDLDFLPERSVSATETSADVLHGIAIKCGAKVEYKPSLVSSTDLRFSVEAWLSNQKIGEGIGKSRREALHKAAEASIQNLADGYMRANGDPGPSHRDATPFTNENISMGNANALNNQPFARDETALPVSSRPTDPRLEGSMRHTGSITALRELCASEGLEMAFQSQRQLPSDMVHRDELHAQVEIDGRVVGEGVGSTWDEARMQAAERALSSVRSMLGQPLHKRQGSPRSFGGMSNKRLKPDFQRSLQRMPSSGRYS
With B1, the binding result in assay [1] was “binds”.

B2: MYB75-nYFP (protein, UniProt Q9FE25 1-248)
chain: MEGSSKGLRKGAWTTEEDSLLRQCINKYGEGKWHQVPVRAGLNRCRKSCRLRWLNYLKPSIKRGKLSSDEVDLLLRLHRLLGNRWSLIAGRLPGRTANDVKNYWNTHLSKKHEPCCKIKMKKRDITPIPTTPALKNNVYKPRPRSFTVNNDCNHLNAPPKVDVNPPCLGLNINNVCDNSIIYNKDKKKDQLVNNLIDGDNMWLEKFLEESQEVDILVPEATTTEKGDTLAFDVDQLWSLFDGETVKFD
As for B2, in assay [2], the binding result is “no binding”.

B3: RCF3-nYFP (protein, UniProt Q8W4B1 1-652)
chain: MERSRSKRNYHYDQDYDGDSMPRSKPRYNNNYHFGGGGGGNNRYRGGGGGGGGNGRPSKSHPETMATTTYRILCHDAKAGGVIGKSGTIIKSIRQHTGAWINVHELVPGDAERIIEISDNRRRDPDGRMPSFSPAQEALFSVHDRILESEAQFGYGGPPPEEEEDYGGVRPGGGRVVTRLVVSRMHVGCLLGKGGKIIEQMRIETKTHIRILPRESNLPRCVSLSEEIVQIVGELNAVKNALAIVSSRLRESQHRDRSNFQGRSHSPERSFAAAGDDYMPQLRRQSSDRFPRGNFRNNNFSSRQSNYAEEAPAVPVGENVYSEELVFQILCPADKIVRVVGESQGIIDLLQNEIGVDVRVSDPVAGSDEQIITISSEEAPDDPFFPAQEALLHIQTQIIDLIPDKDNLITTRLLVPSRDSICLEGKAGSVSEISRLTGTSVQILAREEIPRCASINDVVIQITGEIRAAREALVELTLLLRSHMFKELSQKETPPASTSTTGPLEGVAGVMEVASSNNTIQSREGPTSSNLNLQQVSTILPQFKEGFGSVAKAGESEHREEVPVTTSRMAVPLVTRSTLEVVLPEAVVPKLVTKSRNKLAQISEWSGASVTIVEDRPEETQNIIRISGTPEQAERAQSLLQGFILSIQEDGP
For B3, the binding entry in assay [2] is reported as “binds”.

B4: GAL4 activation domain fused with full-length CPL1 (AD:C1F) (enzyme, UniProt Q5YDB6 1-967)
chain: MYSNNRVEVFHGDGRLGELEIYPSRELNQQQDDVMKQRKKKQREVMELAKMGIRISHFSQSGERCPPLAILTTISSCGLCFKLEASPSPAQESLSLFYSSCLRDNKTAVMLLGGEELHLVAMYSENIKNDRPCFWAFSVAPGIYDSCLVMLNLRCLGIVFDLDETLVVANTMRSFEDKIDGFQRRINNEMDPQRLAVIVAEMKRYQDDKNLLKQYIESDQVVENGEVIKVQSEIVPALSDNHQPLVRPLIRLQEKNIILTRINPMIRDTSVLVRMRPSWEELRSYLTAKGRKRFEVYVCTMAERDYALEMWRLLDPEGNLINTNDLLARIVCVKSGFKKSLFNVFLDGTCHPKMALVIDDRLKVWDEKDQPRVHVVPAFAPYYSPQAEAAATPVLCVARNVACGVRGGFFRDFDDSLLPRIAEISYENDAEDIPSPPDVSHYLVSEDDTSGLNGNKDPLSFDGMADTEVERRLKEAISASSAVLPAANIDPRIAAPVQFPMASASSVSVPVPVQVVQQAIQPSAMAFPSIPFQQPQQPTSIAKHLVPSEPSLQSSPAREEGEVPESELDPDTRRRLLILQHGQDTRDPAPSEPSFPQRPPVQAPPSHVQSRNGWFPVEEEMDPAQIRRAVSKEYPLDSEMIHMEKHRPRHPSFFSKIDNSTQSDRMLHENRRPPKESLRRDEQLRSNNNLPDSHPFYGEDASWNQSSSRNSDLDFLPERSVSATETSADVLHGIAIKCGAKVEYKPSLVSSTDLRFSVEAWLSNQKIGEGIGKSRREALHKAAEASIQNLADGYMRANGDPGPSHRDATPFTNENISMGNANALNNQPFARDETALPVSSRPTDPRLEGSMRHTGSITALRELCASEGLEMAFQSQRQLPSDMVHRDELHAQVEIDGRVVGEGVGSTWDEARMQAAERALSSVRSMLGQPLHKRQGSPRSFGGMSNKRLKPDFQRSLQRMPSSGRYS
Take B4: the binding entry in assay [1] was “binds”.

B5: GAL4 activation domain fused with CPL2 dsRBM (AD:C2^602–770) (domain or fragment, UniProt Q5YDB5 602-770)
chain: PSHLRSEEVAMDDDLKRQNPSRQTTEGGISQNHLVSNGREHHTDGGKSNGGQSHLFVSALQEIGRRCGSKVEFRTVISTNKELQFSVEVLFTGEKIGIGMAKTKKDAHQQAAENALRSLAEKYVAHVAPLARETEKGPENDNGFLWESSEDVSNKGLEEEAPKENISEL
Regarding B5, the binding result in assay [1] is listed as “no binding”.
